Laboratory results taken from PubChem BioAssay (NCI).
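Where inhibition never reached the appropriate level, the endpoint shown equals the highest concentration tested. Otherwise, values were interpolated linearly from a five-concentration, 48-hour dose response in 96-well plates. At the GI50, growth is halved. TGI: concentration producing complete growth inhibition.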

System: NCI-H322M lung
Assay: NCI tumour cell line growth inhibition, 48 h

Compound	GI50	TGI
COc1ccc(C(=O)/C=C/c2cccc3ccccc23)cc1S(N)(=O)=O	2.6 µM	9.38 µM
Cc1ccc2nc(-c3ccc(-c4nnc(SCC(=O)Nc5ccc(Cl)cc5)o4)cc3)[nH]c2c1	9.57 µM	23.6 µM
